At least one peptide structure holds a part that was inferred or is arguable (an end, a ring closure or a residue). Numbered stars: 1 amine (or outer) side, 2 acyl side, 3 side chain; on linkers, the order of the positions; unused ones are H or OH. Bridge positions count the residues as written; N and C are the ends. Square brackets hold non-standard residues; d marks the D form. Side chains are listed from the residue outwards. Peptide text beside a SMILES is read from it. * marks the point of attachment. C20 diacid = O=C(O)CCCCCCCCCCCCCCCCCCC(=O)*; γGlu = O=C(O)[C@H](CCC(=O)[*:2])N[*:1]; cisHyp = O=C(O)[C@@H]1C[C@H](O)CN1; Hyp = O=C(O)[C@@H]1C[C@@H](O)CN1
Experiment: Freeze-thaw stability of derivatives (freeze-thaw yield by liquid chromatography)
Format: physicochemical
Conditions: for Dissolution property: appearance after dissolution at 0.2 mg/ml in 20 mM phosphate buffer solution (PB) (pH 7.0); for Freeze storage property: appearance after overnight storage at −20° C. and thawing to room temperature, 0.2 mg/ml in 20 mM PB (pH 7.0); for Freeze storage yield: concentration of polypeptide after freezing and thawing / concentration before, by liquid chromatography, −20° C. overnight
Outline: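 Lyophilised peptide derivative dissolved at 0.2 mg/ml in 20 mM phosphate buffer, pH 7.0, frozen overnight at −20° C, then thawed at room temperature. Peptide concentration before and after freeze-thaw measured by reversed-phase HPLC on centrifuged supernatant; yield = post-thaw/pre-thaw concentration.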

CC[C@H](C)[C@H](NC(=O)[C@@H]1CCCN1C(=O)[C@H](CCCCNC(=O)CC[C@H](NC(=O)CCCCCCCCCCCCCCCCCCC(=O)O)C(=O)O)NC(=O)[C@H](CC(C)C)NC(=O)[C@H](CC(N)=O)NC(=O)[C@H](CC(N)=O)NC(=O)[C@H](CO)NC(=O)[C@H](CO)NC(=O)[C@H](Cc1c[nH]cn1)NC(=O)[C@H](CCCNC(=N)N)NC(=O)[C@H](CC(C)C)NC(=O)[C@H](Cc1ccccc1)NC(=O)[C@H](CCC(=O)O)NC(=O)[C@H](C)NC(=O)[C@H](CC(C)C)NC(=O)[C@H](CCCNC(=N)N)NC(=O)[C@H](CCC(N)=O)NC(=O)[C@@H](NC(=O)[C@H](C)NC(=O)[C@@H]1CSSC[C@H](NC(=O)[C@@H](N)CCCCN)C(=O)N[C@@H](CC(N)=O)C(=O)N[C@@H]([C@@H](C)O)C(=O)N[C@@H](C)C(=O)N[C@@H]([C@@H](C)O)C(=O)N1)[C@@H](C)O)C(=O)N[C@@H](CC(C)C)C(=O)N[C@@H](CO)C(=O)N1CCC[C@H]1C(=O)N[C@H](C(=O)N[C@@H](CC(N)=O)C(=O)N[C@H](C(=O)NCC(=O)N[C@@H](CO)C(=O)N[C@@H](CC(N)=O)C(=O)N[C@H](C(=O)N1CCC[C@H]1C(N)=O)[C@@H](C)O)C(C)C)[C@@H](C)O [PD038] (H-KCNTATCATQRLAEFLRHSSNNLK([γGlu-C20 diacid])PILSPTNVGSNTP-NH2; disulfide 2-7)
Dissolution property: Muddy
Freeze storage property: Muddy
Freeze storage yield: 100.87%

CC[C@H](C)[C@H](NC(=O)[C@H](C)NC(=O)[C@H](CCCCNC(=O)CC[C@H](NC(=O)CCCCCCCCCCCCCCCCCCC(=O)O)C(=O)O)NC(=O)[C@H](CC(C)C)NC(=O)[C@H](CC(N)=O)NC(=O)[C@H](CC(N)=O)NC(=O)[C@H](CO)NC(=O)[C@H](CO)NC(=O)[C@H](Cc1c[nH]cn1)NC(=O)[C@H](CCCNC(=N)N)NC(=O)[C@H](CC(C)C)NC(=O)[C@H](Cc1ccccc1)NC(=O)[C@H](CCC(=O)O)NC(=O)[C@H](C)NC(=O)[C@H](CC(C)C)NC(=O)[C@H](CCCNC(=N)N)NC(=O)[C@H](CCC(N)=O)NC(=O)[C@@H](NC(=O)[C@H](C)NC(=O)[C@@H]1CSSC[C@H](NC(=O)[C@@H](N)CCCCN)C(=O)N[C@@H](CC(N)=O)C(=O)N[C@@H]([C@@H](C)O)C(=O)N[C@@H](C)C(=O)N[C@@H]([C@@H](C)O)C(=O)N1)[C@@H](C)O)C(=O)N[C@@H](CC(C)C)C(=O)N1CCC[C@H]1C(=O)N1CCC[C@H]1C(=O)N[C@H](C(=O)N[C@@H](CC(N)=O)C(=O)N[C@H](C(=O)NCC(=O)N[C@@H](CO)C(=O)N[C@@H](CC(N)=O)C(=O)N[C@H](C(=O)N1CCC[C@H]1C(N)=O)[C@@H](C)O)C(C)C)[C@@H](C)O [PD039] (H-KCNTATCATQRLAEFLRHSSNNLK([γGlu-C20 diacid])AILPPTNVGSNTP-NH2; disulfide 2-7)
Dissolution property: Clear
Freeze storage property: Clear
Freeze storage yield: 96.97%

CC[C@H](C)[C@H](NC(=O)[C@@H]1CCCN1C(=O)[C@H](CCCCNC(=O)CC[C@H](NC(=O)CCCCCCCCCCCCCCCCCCC(=O)O)C(=O)O)NC(=O)[C@H](CC(C)C)NC(=O)[C@H](CC(N)=O)NC(=O)[C@H](CC(N)=O)NC(=O)[C@H](CO)NC(=O)[C@H](CO)NC(=O)[C@H](Cc1c[nH]cn1)NC(=O)[C@H](CCCNC(=N)N)NC(=O)[C@H](CC(C)C)NC(=O)[C@H](Cc1ccccc1)NC(=O)[C@H](CCC(=O)O)NC(=O)[C@H](C)NC(=O)[C@H](CC(C)C)NC(=O)[C@H](CCCNC(=N)N)NC(=O)[C@H](CCC(N)=O)NC(=O)[C@@H](NC(=O)[C@H](C)NC(=O)[C@@H]1CSSC[C@H](NC(=O)[C@@H](N)CCCNC(=N)N)C(=O)N[C@@H](CC(N)=O)C(=O)N[C@@H]([C@@H](C)O)C(=O)N[C@@H](C)C(=O)N[C@@H]([C@@H](C)O)C(=O)N1)[C@@H](C)O)C(=O)N[C@@H](CC(C)C)C(=O)N1CCC[C@H]1C(=O)N1CCC[C@H]1C(=O)N[C@H](C(=O)N[C@@H](CC(N)=O)C(=O)N[C@H](C(=O)NCC(=O)N[C@@H](CO)C(=O)NCC(=O)N[C@H](C(=O)N1C[C@H](O)C[C@H]1C(N)=O)[C@@H](C)O)C(C)C)[C@@H](C)O [PD041] (H-RCNTATCATQRLAEFLRHSSNNLK([γGlu-C20 diacid])PILPPTNVGSGT[Hyp]-NH2; disulfide 2-7)
Dissolution property: Clear
Freeze storage property: Clear
Freeze storage yield: 96.58%

CC[C@H](C)[C@H](NC(=O)[C@@H]1CCCN1C(=O)[C@H](CCCCNC(=O)CC[C@H](NC(=O)CCCCCCCCCCCCCCCCCCC(=O)O)C(=O)O)NC(=O)[C@H](CC(C)C)NC(=O)[C@H](CC(N)=O)NC(=O)[C@H](CC(N)=O)NC(=O)[C@H](CO)NC(=O)[C@H](CO)NC(=O)[C@H](Cc1c[nH]cn1)NC(=O)[C@H](CCCNC(=N)N)NC(=O)[C@H](CC(C)C)NC(=O)[C@H](Cc1ccccc1)NC(=O)[C@H](CCC(=O)O)NC(=O)[C@H](C)NC(=O)[C@H](CC(C)C)NC(=O)[C@H](CCCNC(=N)N)NC(=O)[C@H](CCC(N)=O)NC(=O)[C@@H](NC(=O)[C@H](C)NC(=O)[C@@H]1CSSC[C@H](N)C(=O)N[C@@H](CC(N)=O)C(=O)N[C@@H]([C@@H](C)O)C(=O)N[C@@H](C)C(=O)N[C@@H]([C@@H](C)O)C(=O)N1)[C@@H](C)O)C(=O)N[C@@H](CC(C)C)C(=O)N1CCC[C@H]1C(=O)N1CCC[C@H]1C(=O)N[C@H](C(=O)N[C@@H](CC(N)=O)C(=O)N[C@H](C(=O)NCC(=O)N[C@@H](CO)C(=O)N[C@@H](CC(N)=O)C(=O)N[C@H](C(=O)N1C[C@H](O)C[C@H]1C(N)=O)[C@@H](C)O)C(C)C)[C@@H](C)O [PD053] (H-CNTATCATQRLAEFLRHSSNNLK([γGlu-C20 diacid])PILPPTNVGSNT[Hyp]-NH2; disulfide 1-6)
Dissolution property: Clear
Freeze storage property: Clear
Freeze storage yield: 104.17%

CC[C@H](C)[C@H](NC(=O)[C@@H]1CCCN1C(=O)[C@H](CCCCNC(=O)CC[C@H](NC(=O)CCCCCCCCCCCCCCCCCCC(=O)O)C(=O)O)NC(=O)[C@H](CC(C)C)NC(=O)[C@H](CC(N)=O)NC(=O)[C@H](CC(N)=O)NC(=O)[C@H](CO)NC(=O)[C@H](CO)NC(=O)[C@H](Cc1c[nH]cn1)NC(=O)[C@H](CCCNC(=N)N)NC(=O)[C@H](CC(C)C)NC(=O)[C@H](Cc1ccccc1)NC(=O)[C@H](CC(=O)O)NC(=O)[C@H](C)NC(=O)[C@H](CC(C)C)NC(=O)[C@H](CCCNC(=N)N)NC(=O)[C@H](CCC(N)=O)NC(=O)[C@@H](NC(=O)[C@H](C)NC(=O)[C@@H]1CSSC[C@H](N)C(=O)N[C@@H](CC(N)=O)C(=O)N[C@@H]([C@@H](C)O)C(=O)N[C@@H](C)C(=O)N[C@@H]([C@@H](C)O)C(=O)N1)[C@@H](C)O)C(=O)N[C@@H](CC(C)C)C(=O)N1CCC[C@H]1C(=O)N1CCC[C@H]1C(=O)N[C@H](C(=O)N[C@@H](CC(N)=O)C(=O)N[C@H](C(=O)NCC(=O)N[C@@H](CO)C(=O)N[C@@H](CC(N)=O)C(=O)N[C@H](C(=O)N1C[C@H](O)C[C@H]1C(N)=O)[C@@H](C)O)C(C)C)[C@@H](C)O [PD054] (H-CNTATCATQRLADFLRHSSNNLK([γGlu-C20 diacid])PILPPTNVGSNT[Hyp]-NH2; disulfide 1-6)
Dissolution property: Clear
Freeze storage property: Clear
Freeze storage yield: 103.78%

CC[C@H](C)[C@H](NC(=O)[C@@H]1CCCN1C(=O)[C@H](CCCCNC(=O)CC[C@H](NC(=O)CCCCCCCCCCCCCCCCCCC(=O)O)C(=O)O)NC(=O)[C@H](CC(C)C)NC(=O)[C@H](CC(N)=O)NC(=O)[C@H](CC(N)=O)NC(=O)[C@H](CO)NC(=O)[C@H](CO)NC(=O)[C@H](Cc1c[nH]cn1)NC(=O)[C@H](CCCNC(=N)N)NC(=O)[C@H](CC(C)C)NC(=O)[C@H](Cc1ccccc1)NC(=O)[C@H](CCC(=O)O)NC(=O)[C@H](C)NC(=O)[C@H](CC(C)C)NC(=O)[C@H](CCCNC(=N)N)NC(=O)[C@H](CCC(N)=O)NC(=O)[C@@H](NC(=O)[C@H](C)NC(=O)[C@@H]1CSSC[C@H](NC(=O)[C@@H](N)CCCNC(=N)N)C(=O)N[C@@H](CC(N)=O)C(=O)N[C@@H]([C@@H](C)O)C(=O)N[C@@H](C)C(=O)N[C@@H]([C@@H](C)O)C(=O)N1)[C@@H](C)O)C(=O)N[C@@H](CC(C)C)C(=O)N1CCC[C@H]1C(=O)N1CCC[C@H]1C(=O)N[C@H](C(=O)N[C@@H](CC(N)=O)C(=O)N[C@H](C(=O)NCC(=O)N[C@@H](CO)C(=O)N[C@@H](CC(N)=O)C(=O)N[C@H](C(=O)N1C[C@@H](O)C[C@H]1C(N)=O)[C@@H](C)O)C(C)C)[C@@H](C)O [PD055] (H-RCNTATCATQRLAEFLRHSSNNLK([γGlu-C20 diacid])PILPPTNVGSNT[cisHyp]-NH2; disulfide 2-7)
Dissolution property: Clear
Freeze storage property: Clear
Freeze storage yield: 99.75%

CC[C@H](C)[C@H](NC(=O)[C@@H]1CCCN1C(=O)[C@H](CCCCNC(=O)CC[C@H](NC(=O)CCCCCCCCCCCCCCCCCCC(=O)O)C(=O)O)NC(=O)[C@H](CC(C)C)NC(=O)[C@H](CC(N)=O)NC(=O)[C@H](CC(N)=O)NC(=O)[C@H](CO)NC(=O)[C@H](CO)NC(=O)[C@H](Cc1c[nH]cn1)NC(=O)[C@H](CCCNC(=N)N)NC(=O)[C@H](CC(C)C)NC(=O)[C@H](Cc1ccccc1)NC(=O)[C@H](CC(=O)O)NC(=O)[C@H](C)NC(=O)[C@H](CC(C)C)NC(=O)[C@H](CCCNC(=N)N)NC(=O)[C@H](CCC(N)=O)NC(=O)[C@@H](NC(=O)[C@H](C)NC(=O)[C@@H]1CSSC[C@H](NC(=O)[C@@H](N)CCCNC(=N)N)C(=O)N[C@@H](CC(N)=O)C(=O)N[C@@H]([C@@H](C)O)C(=O)N[C@@H](C)C(=O)N[C@@H]([C@@H](C)O)C(=O)N1)[C@@H](C)O)C(=O)N[C@@H](CC(C)C)C(=O)N1CCC[C@H]1C(=O)N1CCC[C@H]1C(=O)N[C@H](C(=O)N[C@@H](CC(N)=O)C(=O)N[C@H](C(=O)NCC(=O)N[C@@H](CO)C(=O)N[C@@H](CC(N)=O)C(=O)N[C@H](C(=O)N1C[C@@H](O)C[C@H]1C(N)=O)[C@@H](C)O)C(C)C)[C@@H](C)O [PD056] (H-RCNTATCATQRLADFLRHSSNNLK([γGlu-C20 diacid])PILPPTNVGSNT[cisHyp]-NH2; disulfide 2-7)
Dissolution property: Clear
Freeze storage property: Clear
Freeze storage yield: 101.22%

— US20260166128A1, “HUMAN AMYLIN ANALOG, AND DERIVATIVE THEREOF AND USE THEREOF” (priority 2022, published 2026)
